# Reference: the supplement of paper PMC11417369
# ± gives the standard deviation of the averaged measurements. The list shows a part of the results.
# Tested on: PfAP2-LT AP2 domain (GST-tagged)
# Assay: gcPBM binding intensity (ln(normalized median fluorescence intensity)); higher = stronger DNA binding
# Method in brief: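 Binding intensity is defined as the maximum Masliner-normalised natural-log median intensity across replicate spots for either probe orientation. It was measured on an Agilent 4 × 180k array of primer-extended double-stranded 36-bp intergenic genomic probes and negative controls, to which GST-tagged P. falciparum DNA-binding domains made in E. coli were applied for 1 h in 1× PBS with 1% milk, 0.2 mg/ml BSA, 0.5% salmon testes DNA and 0.03% Triton X-100. Detection was by Alexa488 anti-GST antibody and scanning at 488 nm.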
row,Sequence,gcPBM binding intensity (ln)
1,ATATATATAATATAGGTGCACTACTTATTTAAAAAA,8.76 ± 0.43
2,TAAAAATGTAGACACACACACATATATATATTTAAT [CACACA_site1528],9.55 ± 0.28
3,TTAATAACAAAATAAACACACATATATAAATCCACA [CACACA_site1590],9.09 ± 0.38
4,AAATAATTAGCTATTTGTACATATATACATATTTAT [XGTACX_site4652],8.97 ± 0.46
5,ACTACCTATATTTAAGCATGCAAAAAATAAAAATAT [TGCATGCA_site238],8.89 ± 0.41
6,ATAAATTGTTCTTTTTGTGTAAACAGAATATTAAAA [CACACA_negctrl_site1022],8.31 ± 0.45
7,TTAATTTGTTCTTACACACACATATATATATATTTA [CACACA_site1185],9.18 ± 0.37
8,ATTTTTTTTTTTATTTTCTTTGAGATTATCTTAATT [CACACA_negctrl_site1209],8.61 ± 0.47
9,ATATTTTAAATGTTATGTACACATTTGTTGTTTACA [XGTACX_site7353],8.89 ± 0.45
10,AATATTATTATTATTACACACACAATTATATTTACC [CACACA_site8061],9.35 ± 0.38
11,TATATATATACATAATGTACATTTTATAAATTTACA [XGTACX_site5283],8.62 ± 0.44
12,AAATAACACATATATACACACATATAAATATAATAT [CACACA_site2692],9.29 ± 0.34
13,AAAAAAAAAAAAAAAATACACACGTGAATGTATTGT [CACACA_site1320],9.12 ± 0.31
14,AAAAAACTTATAATCACACATATGATTAAATATTAA [CACACA_site4956],8.62 ± 0.54
15,ATAGGACCTATGTGCCCATGGGTACATTAAAAAAAA [CACACA_negctrl_site1465],8.87 ± 0.6
16,AATTATTTTTTGTATGAACACACAACTTAATTATGA [CACACA_site8774],8.87 ± 0.45
17,TTGAATGTAGTTAAATGTACATGTAATATATAAAAA [XGTACX_site1250],8.85 ± 0.5
18,TTTGTTTTAAATCGAAGTACACATAATTATATTTTA [XGTACX_site1541],8.35 ± 0.4
19,ATACAACATATATATACACACATATAATAATAATAA [CACACA_site3367],9.26 ± 0.38

row,Sequence,gcPBM binding intensity (ln)
1,AAACCAATAAAAAACTGTACAAAAATTATATGAGAT [XGTACX_site1269],8.95 ± 0.45
2,TAATATAAAGGAAAAGAAAAGAAAAGAATATACAAT [CACACA_negctrl_site1369],8.69 ± 0.52
3,GAATAAAAAATATATGTGCACATATAAACTTAAAAT [GTGCAC_site9554],9.19 ± 0.57
4,AAAAAAAAAAAAAAAAAAAAAAAAATCACACATTGG [TGCATGCA_negctrl_site412],9.05 ± 0.28
5,TTTTGGATGTATTATACATGCATATTATTATAATAT [TGCATGCA_site997],8.62 ± 0.42
6,ATATATCTACAAATATGTACACACACACATATATAT [XGTACX_site1075],9.74 ± 0.38
7,AGAAAAGAAATTAAATGTACACAACTATAACCAAAT [XGTACX_site8084],9.03 ± 0.44
8,AAAAAAAAAAAATAAAGTACTAAATAATACATTATA [XGTACX_site6203],8.54 ± 0.45
9,TGTACAACAATTTTTGCACACACCAAAACATAAAAT [CACACA_site1598],9.36 ± 0.29
10,ATTATGTTATTATTTTGTACACATAAATAATACGTT [XGTACX_site816],8.96 ± 0.47
11,TGTTTCTTATTTTTTTCACACACTAATCATTTCAAA [CACACA_site8695],8.97 ± 0.54
12,GAACAAAAATACTTATGTACACATTAGCAAGGAAAA [XGTACX_site5622],8.89 ± 0.5
13,TCATATGTGAAACACACACACACACCCAAAAAAACA [CACACA_site3247],10.06 ± 0.028
14,AAAAAAAATATCCGACGTACTATTTTCGTAGAAATA [XGTACX_site6292],8.63 ± 0.4
15,AAACAAAAAAGAAGCACACATATATATATATATATG [CACACA_site2456],9.31 ± 0.38
16,TATACGCATATATACACACACATATATATATATATA [CACACA_site3416],10.1 ± 0.11
17,ATCTGAAAAATTAATAGTACAATTAATAATTAAACC [XGTACX_site8523],8.72 ± 0.42
18,ACAAATAAATATTCGCGTACTTATATAATATTACGA [XGTACX_site6428],8.84 ± 0.37
19,TGTTAATTTCATTTTCTACACACCTATCCTTTTTTT [CACACA_site8157],9.07 ± 0.65

row,Sequence,gcPBM binding intensity (ln)
1,AACAAACAAATAGTTTATTTTGATTTTTTTAAAAAT [CACACA_negctrl_site693],8.19 ± 0.37
2,CATACATACATATATACACACATATATAATAATATA [CACACA_site2678],9.19 ± 0.39
3,TACGAATTAAAAAAGAGTACAAATAAAATATCTACA [XGTACX_site7412],8.65 ± 0.48
4,AATTAGCTCAAAGGTTGTACAAATATATTTTAATGG [XGTACX_site2352],8.66 ± 0.48
5,TTTTAAACACCAATCAAAAAAATATAAATATAAATA [TGCATGCA_negctrl_site552],8.45 ± 0.48
6,AATATAAATACTCCTACACACATATAAATATAAATA [CACACA_site7419],9.07 ± 0.38
7,TCCACATTAATGTAATGTACAAAATTAGAAAATAAA [XGTACX_site6287],8.61 ± 0.45
8,TTTTGATTAAGTGAATTTTTTTATTTATATAAATAT [TGCATGCA_negctrl_site479],8.37 ± 0.41
9,TTACATTGTAAAAAGTGTACATATAATTTAATTAAT [XGTACX_site1834],8.6 ± 0.4
10,GGATTACAAATAGGTTGTACGTTTTTTTTTTTTTCT [XGTACX_site3605],8.72 ± 0.57
11,ATGTAGACTGAAACCACACACACATATATATATATA [CACACA_site606],10.2 ± 0.2
12,AAAAAAAATAATTTGCGTACATAAAAATTTATAGGA [XGTACX_site3016],8.54 ± 0.49
13,TCCGTATATTTATACGCATGCATTATGAACATTGTT [TGCATGCA_site613],8.9 ± 0.33
14,AAATTTTTTTTTGTCATATGATGTTTGAACCCAAAT [CACACA_negctrl_site1659],8.55 ± 0.55
15,AAAAAAAAAAAAAAATGTACCCATAAAATAAGCATT [XGTACX_site8576],8.81 ± 0.47
16,TATATTATATATATATGTACATATGGCAAAACATTA [XGTACX_site7958],8.72 ± 0.47
17,AATCACAACGAACACACACACAAAAAAAAAAAAAAA [CACACA_site6790],9.34 ± 0.63
18,TTTTTTACAATTAACACACTCAAAAATAATATTAAA [CACACA_site5198],8.3 ± 0.43
